According to PubChem BioAssay (Tox21):
Inconclusive means that the source gave no clear call. Such entries were picked first, then a sample of the others. Potencies of inconclusive entries are doubtful fits and often do not repeat. Active and inactive are the calls of the source. The call rests on the fitted dose curve; in most records, active means well fitted curve in the direction sought with a large enough effect in the repeat runs; inconclusive means weak or mixed curves; inactive means no such curve, though single readings can be large; an effect the other way counts as inactive or inconclusive.

System: not listed separately
Assay: A CellTox Green Cytotoxicity Assay to monitor cytotoxicity in HepG2 cells - 32 hour (AID 1224883); further: nearly all actives have a fitted effect of over 50% in size
Conditions: CellTox Green fluorescence; series mostly up to 76.8 µM
Outline: (§1)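 Cytotoxicity was tracked as dead-cell DNA fluorescence in HepG2 cells treated with test compounds at 37 C; each time-point value comes from one kinetic series spanning 0, 8, 16, 24, 32 and 40 h.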
Potency means the concentration at half of the fitted maximal effect; tags describe the fitted curve by direction and shape.

Row | SMILES | Potency
1 | Cc1occc1C(=O)Nc1ccc(C(=O)N2CCC(F)(F)/C(=C\C(=O)N3CCC(N4CCCCC4)CC3)c3ccccc32)cc1 | inconclusive: 17.2 µM [activator, single point]
2 | CN(C)CCC(c1ccc(Cl)cc1)c1ccccn1 (configuration not stated) | inconclusive: 55.1 µM [activator, partial curve, poor fit]
3 | Cc1ccc(C(C)NC(=O)[C@@H](NC(=O)OC(C)C)C(C)C)cc1 (some centres not stated) | inactive
4 | CCC1=C(C)CN(C(=O)NCCc2ccc(S(=O)(=O)NC(=O)NC3CCC(C)CC3)cc2)C1=O (configuration not stated) | inactive
5 | CCCCCCCCCCCCCCCCOS(=O)(=O)O | inconclusive: 26.8 µM [activator, single point]
6 | COc1cc(C)ccc1C(C)C | inactive
7 | CCC(C)(CCC(C)C)C(=O)O (configuration not stated) | inactive
8 | CC(=O)c1ccc2c(c1)N(CCCN(C)C)c1ccccc1S2 | inconclusive: 26.8 µM [activator, partial curve, poor fit]
9 | CCCCCCOC(=O)CCC | inactive
10 | CCN(CC)CCNC(=O)c1cc(Br)c(N)cc1OC | inactive
11 | CCCCCCCC(=O)OCC(O)CO (configuration not stated) | inconclusive: 26.8 µM [activator, single point]
12 | O=S(=O)(O)C(F)(F)F | inactive
13 | CC(=O)Oc1ccc(C)cc1 | inconclusive: 21.9 µM [activator, single point]
14 | CN(C)C(=O)NC1(c2ccccc2)CCN(CCC[C@]2(c3ccc(Cl)c(Cl)c3)CCCN(C(=O)c3ccccc3)C2)CC1 | inconclusive: 11.7 µM [activator, single point]
15 | Oc1cc(O)c(Cl)cc1Cl | inactive

System: not listed separately
Assay: A CellTox Green Cytotoxicity Assay to monitor cytotoxicity in HEK293 cells - 8 hour (AID 1224884); further: nearly all actives have a fitted effect of over 35% in size
Conditions: CellTox Green fluorescence; series mostly up to 76.8 µM
Outline: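 Real-time, in one plate: 600 HEK293 cells/well with dead-cell DNA dye, pinned compound after 5 h, 37 C incubation over 40 h; viable cells give no appreciable fluorescence.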

Row | SMILES | Potency
16 | CC(C)O.CC(C)O.CCOC(=O)/C=C(\C)O.CCOC(=O)/C=C(\C)O.[Ti] | inconclusive: 19.5 µM [activator, partial curve]
17 | CC(=O)N[C@@H](CCC(=O)O)C(=O)O | inactive
18 | Cn1cc[nH]c1=S | inactive
19 | COc1cc2c(Nc3ccc(Br)cc3F)ncnc2cc1OCC1CCN(C)CC1 | inconclusive: 12 µM [activator, partial curve, poor fit]
20 | CC1=CCC(O)(C(C)C)CC1 (configuration not stated) | inactive
21 | O=C(O)CNC(=O)CNC(=O)CNC(=O)CSC(=O)c1ccccc1 | inactive
22 | OCCC(O)CO (configuration not stated) | inactive
23 | CCCCCCCCCCCC(=O)Cl | inconclusive: 12.3 µM [activator, single point]
24 | O=c1[nH]nnc2ccccc12 | inactive

System: not listed separately
Assay: qHTS RealTime-Glo MT Cell Viability Assay in HEK293 cells - 8 hour (AID 1224887); further: nearly all actives have a fitted effect of over 50% in size
Conditions: RealTime-Glo luminescence; series mostly up to 76.8 µM
Outline: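 Kinetic, non-lysing viability readout. Seed HEK293 (600/well) with reagent, incubate 5 h at 37 C/5% CO2, pin 23 nL compound in DMSO, incubate at 37 C, read luminescence at 0, 8, 16, 24, 32, 40 h.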

Row | SMILES | Potency
25 | CC[C@H]1CC[C@H](NCc2cc3c(cc2OC)[C@H]2C[C@H]2C(=O)N3C)[C@H](c2ccccc2)N1 | inconclusive: 38.9 µM [cytotoxic, partial curve]
26 | CCN(CC)CCCC(C)Nc1ccnc2cc(Cl)ccc12 (configuration not stated) | inconclusive: 11.7 µM [cytotoxic, partial curve, poor fit]
27 | O=C1CCCCCCCCCCC(=O)OCCO1 | inconclusive: 54.9 µM [cytotoxic, partial curve, poor fit]
28 | CC(C)c1nnc2ccc(-c3ocnc3-c3cc(F)ccc3F)cn12 | active: 19.5 µM
29 | Cc1ccccc1N=O | inactive
30 | Cc1occc1C(=O)Nc1ccc(C(=O)N2CCC(F)(F)/C(=C\C(=O)N3CCC(N4CCCCC4)CC3)c3ccccc32)cc1 | inconclusive: 12.1 µM [cytotoxic, partial curve]
31 | O=S(=O)(O)C(F)(F)F | inconclusive: 0.0155 µM [rising, full curve, poor fit]

System: not listed separately
Assay: A CellTox Green Cytotoxicity Assay to monitor cytotoxicity in HepG2 cells - 8 hour (AID 1224890); further: nearly all actives have a fitted effect of over 45% in size
Conditions: CellTox Green fluorescence; series mostly up to 76.8 µM
Outline: as §1

Row | SMILES | Potency
32 | Cc1onc(-c2ccccc2)c1C(=O)Cl | inconclusive: 26.8 µM [activator, single point]
33 | CCCCCCCCCCCCCCCCOS(=O)(=O)O | inconclusive: 26.8 µM [activator, single point]
34 | CCCCCCCC(=O)OCC(O)CO (configuration not stated) | inconclusive: 26.8 µM [activator, single point]
35 | CC(=O)Oc1ccc(C)cc1 | inconclusive: 0.0952 µM [activator, single point]

System: not listed separately
Assay: qHTS assay to identify small molecule antagonists of the estrogen receptor alpha (ER-alpha) signaling pathway using the BG1 cell line in the presence of 0.1 nM 17-beta-estradiol - cell viability counter screen (AID 1259241); further: nearly all actives have a fitted effect of over 40% in size
Conditions: VM7Luc4E2 (BG1) viability, CellTiter-Fluor protease, 22 h, 0.1 nM estradiol agonist added; series mostly up to 92.4 µM
Outline: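 The cell line endogenously expresses full-length ER-alpha and carries four EREs driving luciferase. Cells are cultured 5 days hormone-free, treated 22 hr with compounds and 0.1 nM estradiol, then viability is read by fluorescence.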

Row | SMILES | Potency
36 | O=C1CCCCCCCCCCC(=O)OCCO1 | inactive
37 | CNC(=S)NC | inactive
38 | Cc1occc1C(=O)Nc1ccc(C(=O)N2CCC(F)(F)/C(=C\C(=O)N3CCC(N4CCCCC4)CC3)c3ccccc32)cc1 | inconclusive: 7.6 µM [cytotoxic, partial curve]
39 | CN(C)CCC(c1ccc(Cl)cc1)c1ccccn1 (configuration not stated) | inconclusive: 30.7 µM [cytotoxic, partial curve]

System: not listed separately
Assay: qHTS assay to identify small molecule antagonists of the androgen receptor (AR) signaling pathway using the MDA cell line in the presence of 0.5 nM R1881 - cell viability counter screen (AID 1259242); further: nearly all actives have a fitted effect of over 45% in size
Conditions: MDA-kb2 viability, CellTiter-Fluor protease fluorescence, 16 h; series mostly up to 92.4 µM
Outline: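 Cells seeded at 3,000/well and allowed 5 hr at 37C, 0% CO2 before compound transfer and R1881 (0.5 nM final) addition; 16 hr later, live-cell protease fluorescence indicated cytotoxicity.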

Row | SMILES | Potency
40 | CCN(CC)CCCC(C)Nc1ccnc2cc(Cl)ccc12 (configuration not stated) | inconclusive: 11.6 µM [cytotoxic, partial curve, poor fit]
41 | Brc1c(NC2=NCCN2)ccc2nccnc12 | inactive
42 | CCOC(=O)/C=C/C(=O)O | inactive
43 | COc1ccc([C@@H]2Sc3ccccc3NC(=O)[C@@H]2O)cc1 | inactive
44 | COc1cc(C)ccc1C(C)C | inactive

Target: Estrogen receptor (Homo sapiens) (UniProt P03372)
Sequence of UniProt P03372 (P03372 whole entry, looked up): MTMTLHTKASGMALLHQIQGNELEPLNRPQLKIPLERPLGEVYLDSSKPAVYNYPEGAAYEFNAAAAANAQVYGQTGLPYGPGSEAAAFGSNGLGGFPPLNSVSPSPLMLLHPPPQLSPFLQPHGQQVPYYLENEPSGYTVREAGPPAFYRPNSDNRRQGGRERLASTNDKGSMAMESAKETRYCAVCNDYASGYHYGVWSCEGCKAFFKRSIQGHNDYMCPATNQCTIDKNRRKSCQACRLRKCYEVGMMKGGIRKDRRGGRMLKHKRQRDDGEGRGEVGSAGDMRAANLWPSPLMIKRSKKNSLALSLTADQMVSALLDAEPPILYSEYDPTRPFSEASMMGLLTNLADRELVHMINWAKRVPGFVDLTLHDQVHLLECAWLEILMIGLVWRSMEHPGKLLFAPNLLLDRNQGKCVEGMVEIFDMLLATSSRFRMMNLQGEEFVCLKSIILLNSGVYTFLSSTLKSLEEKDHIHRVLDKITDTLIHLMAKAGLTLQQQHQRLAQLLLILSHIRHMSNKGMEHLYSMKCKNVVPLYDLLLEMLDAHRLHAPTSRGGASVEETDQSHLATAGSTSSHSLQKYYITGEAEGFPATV
Assay: qHTS assay to identify small molecule antagonists of the estrogen receptor alpha (ER-alpha) signaling pathway using the BG1 cell line in the presence of 0.1 nM 17-beta-estradiol (AID 1259244); further: nearly all actives have a fitted effect of over 50% in size
Conditions: VM7Luc4E2 (BG1) ERE-luciferase, antagonist mode, 0.1 nM E2, 22 h; series mostly up to 92.4 µM
Outline: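 Luciferase signal from VM7Luc4E2 ERE-reporter cells, co-dosed with test compound and 0.1 nM final 17beta-estradiol for 22 h, read with ONE-Glo.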

Row | SMILES | Potency
45 | CC[C@H]1CC[C@H](NCc2cc3c(cc2OC)[C@H]2C[C@H]2C(=O)N3C)[C@H](c2ccccc2)N1 | inconclusive: 68.6 µM [inhibitor, single point]
46 | COc1ccc([C@@H]2Sc3ccccc3NC(=O)[C@@H]2O)cc1 | inconclusive: 18.8 µM [inhibitor, partial curve]
47 | Cc1occc1C(=O)Nc1ccc(C(=O)N2CCC(F)(F)/C(=C\C(=O)N3CCC(N4CCCCC4)CC3)c3ccccc32)cc1 | inconclusive: 15.2 µM [inhibitor, partial curve]
